{"source": "PubChem BioAssay AID1468", "about": "(National Center for Advancing Translational Sciences (NCATS), 2008)", "note": "About 1,100 (0.39%) of roughly 280,000 compounds were called active. The shares of active, inactive and inconclusive entries below differ from those in the screen. Calls come from the whole dose curve; as a rule, active = well fitted inhibition curve with a large enough effect; inconclusive = small, poorly fitted or top-dose-only effect, or effect the other way; inactive = flat fitted curve, though single readings scatter. Potencies of inconclusive entries are left out as doubtful fits. Potency is the fitted concentration of half-maximal effect; tags give direction and shape of the fitted curve.", "data": [{"target": "Microtubule-associated protein tau (Homo sapiens) (UniProt P10636)", "sequence (P10636 whole entry, looked up, the tested form may be a part)": "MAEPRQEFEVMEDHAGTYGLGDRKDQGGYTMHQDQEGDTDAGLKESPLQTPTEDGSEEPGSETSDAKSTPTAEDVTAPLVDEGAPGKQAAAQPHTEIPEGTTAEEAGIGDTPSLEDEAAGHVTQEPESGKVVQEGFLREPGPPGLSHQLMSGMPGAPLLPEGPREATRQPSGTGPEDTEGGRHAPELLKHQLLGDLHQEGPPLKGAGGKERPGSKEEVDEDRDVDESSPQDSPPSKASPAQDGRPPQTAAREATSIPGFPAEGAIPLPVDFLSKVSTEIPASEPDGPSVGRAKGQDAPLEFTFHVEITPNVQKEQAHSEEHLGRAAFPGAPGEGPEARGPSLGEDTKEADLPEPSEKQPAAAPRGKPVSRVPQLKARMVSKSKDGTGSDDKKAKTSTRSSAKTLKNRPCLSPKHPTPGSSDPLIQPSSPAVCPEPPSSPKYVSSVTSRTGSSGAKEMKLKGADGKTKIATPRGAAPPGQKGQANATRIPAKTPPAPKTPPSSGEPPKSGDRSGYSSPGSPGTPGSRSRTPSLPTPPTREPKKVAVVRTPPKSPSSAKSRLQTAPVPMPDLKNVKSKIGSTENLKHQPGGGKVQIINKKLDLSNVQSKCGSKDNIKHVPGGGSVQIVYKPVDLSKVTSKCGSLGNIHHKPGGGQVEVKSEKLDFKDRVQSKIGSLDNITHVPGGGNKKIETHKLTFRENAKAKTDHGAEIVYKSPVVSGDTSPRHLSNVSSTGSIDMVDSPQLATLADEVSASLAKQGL", "test": "qHTS for Inhibitors of Tau Fibril Formation, Fluorescence Polarization; note: nearly all actives have a fitted effect of over 55% in size", "conditions": "K18 P301L tau heparin fibrillization, Alexa594 FP, 6 h; series mostly up to 57.7 µM", "in_short": "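Human K18 P301L fragment (15 uM unlabeled plus 0.24 uM Alexa 594-labeled) in 100 mM sodium acetate pH 7 with compound, aggregation induced by 20 uM heparin for 6 hr at 37 C. ThT (30 uM) added for 1 hr, then Alexa 594 FP read.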", "values": [{"smiles": "CCOc1cc(/C=C2\\CCC/C(=C\\c3cc(Cl)c(O)c(OCC)c3)C2=O)cc(Cl)c1O", "Potency": "inconclusive [inhibitor, single point]"}, {"smiles": "Cc1cccc(-n2c(SCN3C(=O)c4ccccc4C3=O)nc3ccccc3c2=O)c1", "Potency": "inconclusive [inhibitor, single point]"}, {"smiles": "Cc1cccc(NC(=O)CN2C(=O)NC(C)(c3ccc4c(c3)OCO4)C2=O)c1", "note": "(configuration not stated)", "Potency": "inconclusive [activator, partial curve, poor fit]"}, {"smiles": "CO[C@]1(NC(=O)C(C(=O)O)c2ccc(O)cc2)C(=O)N2C(C(=O)O)=C(CSc3nnnn3C)COC21", "note": "(some centres not stated)", "Potency": "inactive"}, {"smiles": "CCCSc1nnc(NC(=O)Nc2ccccc2OC)s1", "Potency": "inconclusive [inhibitor, partial curve]"}, {"smiles": "Cc1nn(C)c(C)c1S(=O)(=O)N(CC(=O)NCCc1ccccc1)c1ccc(C(C)C)cc1", "Potency": "inactive"}, {"smiles": "Cn1cccc1Cc1nnc(SCC(=O)Nc2ccc3c(c2)OCCO3)n1-c1ccc(F)cc1", "Potency": "inactive"}, {"smiles": "O=C(c1cccc(F)c1)N1CCc2ccccc2C1", "Potency": "inactive"}, {"smiles": "Cc1ccc(C(=O)c2cn(Cc3cccc(Cl)c3)c3nc(C)ccc3c2=O)cc1", "Potency": "inconclusive [activator, partial curve]"}, {"smiles": "Cc1ccccc1C(=O)Nc1cc(C)c(O)c(-c2nc3ccccc3o2)c1", "Potency": "inconclusive [inhibitor, single point]"}, {"smiles": "O=C(O)c1ccc(NS(=O)(=O)c2cccc3cccnc23)cc1", "Potency": "inconclusive [inhibitor, partial curve, poor fit]"}, {"smiles": "Cc1cc(C(=O)Nc2ccccc2N2CCCCC2)no1", "Potency": "inconclusive [inhibitor, single point]"}, {"smiles": "COCCNC(=S)N(CCc1c(C)[nH]c2ccccc12)Cc1ccco1", "Potency": "inconclusive [activator, single point]"}, {"smiles": "COc1cc(C)ccc1OCCSc1nc2ccc(NC(=O)c3ccco3)cc2s1", "Potency": "inconclusive [inhibitor, partial curve]"}, {"smiles": "O=C(c1c(Cl)cccc1Cl)N1CCN(c2cccc3[nH]ccc23)CC1", "Potency": "inconclusive [activator, single point]"}, {"smiles": "N[C@H](CCC(=O)N[C@H](CSN=O)C(=O)NCC(=O)O)C(=O)O", "Potency": "inconclusive [inhibitor, partial curve]"}, {"smiles": "O=C(CSc1nnc(C23CC4CC(CC(C4)C2)C3)o1)Nc1ccc(N2CCOCC2)c(Cl)c1", "Potency": "inconclusive [activator, single point]"}, {"smiles": "O=C1C(Cl)=C(NS(=O)(=O)c2ccc([N+](=O)[O-])cc2)C(=O)c2ccccc21", "Potency": "active: 8.91 µM"}, {"smiles": "CCNC(=S)N(CCc1c(C)[nH]c2ccc(C)cc12)Cc1cc(OC)c(OC)c(OC)c1", "Potency": "inconclusive [activator, partial curve]"}, {"smiles": "CCn1nccc1C(=O)Nc1cc(Cl)cc(Cl)c1", "Potency": "active: 28.2 µM"}, {"smiles": "CCc1cc2c(=O)[nH]c(-c3ccccn3)nc2s1", "Potency": "inactive"}, {"smiles": "CC(=O)c1c(C)[nH]c(-c2ccccc2)nc1=S", "Potency": "inactive"}, {"smiles": "CCN(CC)S(=O)(=O)c1cccc(NC(=O)c2ccc(Br)cc2)c1", "Potency": "inconclusive [inhibitor, single point]"}, {"smiles": "CC1=NN(c2ccccc2)C(=O)/C1=C\\c1cn(C)c2ccccc12", "Potency": "inconclusive [activator, partial curve, poor fit]"}, {"smiles": "COc1ccc2[nH]c(C)c(CCN(Cc3cccs3)C(=S)Nc3ccc(F)cc3)c2c1", "Potency": "inactive"}, {"smiles": "CC(C)(C)OC(=O)NCCCC1=CC2=CC(=O)C(C)(OC(=O)CCc3ccccc3)C(=O)C2=CO1", "note": "(configuration not stated)", "Potency": "inconclusive [inhibitor, single point]"}, {"smiles": "COc1ccc(-c2noc(N(C)CC(=O)Nc3cccc(C(F)(F)F)c3)n2)cc1", "Potency": "inconclusive [inhibitor, partial curve, poor fit]"}, {"smiles": "CC(C)Cn1c(N)c(C(=O)COC(=O)c2cc(F)cc(F)c2)c(=O)n(C)c1=O", "Potency": "inactive"}, {"smiles": "COc1ccc(CCNC(=O)Cn2c(=O)cc(C(F)(F)F)c3c(C)nn(C)c32)cc1OC", "Potency": "inactive"}, {"smiles": "Cn1c(-c2ccc(Cl)cc2)cnc1NCc1cc2c(cc1[N+](=O)[O-])OCO2", "Potency": "inactive"}, {"smiles": "COc1ccc(NC(=S)Nc2ccc(C)c(S(=O)(=O)N3CCCCC3)c2)cc1", "Potency": "inconclusive [inhibitor, single point]"}, {"smiles": "CCOC(=O)c1ccc(NC(=O)c2nc[nH]c2C(=O)NCCCCCNC(=O)OC(C)(C)C)cc1", "Potency": "inconclusive [inhibitor, full curve, poor fit]"}, {"smiles": "COc1ccc(CNC(=O)c2cnn3c(C(F)F)cc(C)nc23)cc1OC", "Potency": "inactive"}, {"smiles": "Cc1ccc(Cl)cc1NC(=O)c1sc2nc(-c3ccccc3)cn2c1C", "Potency": "inconclusive [inhibitor, partial curve]"}, {"smiles": "CCc1cccc(NC(=O)c2cc3c(=O)[nH]c4ccccc4c3n2C)c1", "Potency": "inconclusive [inhibitor, partial curve]"}, {"smiles": "CCOC(=O)c1ccc(NC(=O)c2cn(CCC#N)nc2-c2ccc3c(c2)OCCO3)cc1", "Potency": "inconclusive [inhibitor, partial curve]"}, {"smiles": "CCOc1ccc(Br)cc1S(=O)(=O)Nc1nc(CN2CCOCC2)nc2sc(C)c(C)c12", "Potency": "inactive"}, {"smiles": "CC(=O)c1cccc(NC(=O)CSc2nnc3ccc(-c4ccc(Cl)cc4)nn23)c1", "Potency": "inconclusive [inhibitor, single point]"}, {"smiles": "CC(=O)Oc1cc(-c2coc3cc(OC(C)=O)c(OC(C)=O)c(OC(C)=O)c3c2=O)cc(OC(C)=O)c1OC(C)=O", "Potency": "active: 8.91 µM"}, {"smiles": "O=c1oc2cc(O)ccc2s1", "Potency": "inconclusive [inhibitor, partial curve, poor fit]"}, {"smiles": "Clc1ccc(OCc2nc(-c3ccc(-n4cccc4)cc3)no2)cc1", "Potency": "inconclusive [activator, single point]"}, {"smiles": "C/C(CCN1CCCCc2nc(C)c(C)cc21)=N\\OC[C@@H](O)[C@@H]1O[C@@H]2OC(C)(C)O[C@@H]2[C@H]1O", "Potency": "inconclusive [inhibitor, single point]"}]}]}
